Assay results: article PMC4336329 (PLoS ONE, 2015)
The campaign covered roughly 310,000 compounds. About 14,000 (4.5%) showed an effect of 50% or more. The effect is printed as a negative number. The list shows a part of the results.

What follows are molecules tested against human ether-à-go-go-related gene (hERG) potassium channel (human, UniProt Q12809) (assay: primary screen, population patch clamp on CHO cells stably expressing hERG).
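Also: peak tail current of the secondary pulse compared with the same well before compound.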

human ether-à-go-go-related gene (hERG) potassium channel, sequence (Q12809 whole entry, looked up): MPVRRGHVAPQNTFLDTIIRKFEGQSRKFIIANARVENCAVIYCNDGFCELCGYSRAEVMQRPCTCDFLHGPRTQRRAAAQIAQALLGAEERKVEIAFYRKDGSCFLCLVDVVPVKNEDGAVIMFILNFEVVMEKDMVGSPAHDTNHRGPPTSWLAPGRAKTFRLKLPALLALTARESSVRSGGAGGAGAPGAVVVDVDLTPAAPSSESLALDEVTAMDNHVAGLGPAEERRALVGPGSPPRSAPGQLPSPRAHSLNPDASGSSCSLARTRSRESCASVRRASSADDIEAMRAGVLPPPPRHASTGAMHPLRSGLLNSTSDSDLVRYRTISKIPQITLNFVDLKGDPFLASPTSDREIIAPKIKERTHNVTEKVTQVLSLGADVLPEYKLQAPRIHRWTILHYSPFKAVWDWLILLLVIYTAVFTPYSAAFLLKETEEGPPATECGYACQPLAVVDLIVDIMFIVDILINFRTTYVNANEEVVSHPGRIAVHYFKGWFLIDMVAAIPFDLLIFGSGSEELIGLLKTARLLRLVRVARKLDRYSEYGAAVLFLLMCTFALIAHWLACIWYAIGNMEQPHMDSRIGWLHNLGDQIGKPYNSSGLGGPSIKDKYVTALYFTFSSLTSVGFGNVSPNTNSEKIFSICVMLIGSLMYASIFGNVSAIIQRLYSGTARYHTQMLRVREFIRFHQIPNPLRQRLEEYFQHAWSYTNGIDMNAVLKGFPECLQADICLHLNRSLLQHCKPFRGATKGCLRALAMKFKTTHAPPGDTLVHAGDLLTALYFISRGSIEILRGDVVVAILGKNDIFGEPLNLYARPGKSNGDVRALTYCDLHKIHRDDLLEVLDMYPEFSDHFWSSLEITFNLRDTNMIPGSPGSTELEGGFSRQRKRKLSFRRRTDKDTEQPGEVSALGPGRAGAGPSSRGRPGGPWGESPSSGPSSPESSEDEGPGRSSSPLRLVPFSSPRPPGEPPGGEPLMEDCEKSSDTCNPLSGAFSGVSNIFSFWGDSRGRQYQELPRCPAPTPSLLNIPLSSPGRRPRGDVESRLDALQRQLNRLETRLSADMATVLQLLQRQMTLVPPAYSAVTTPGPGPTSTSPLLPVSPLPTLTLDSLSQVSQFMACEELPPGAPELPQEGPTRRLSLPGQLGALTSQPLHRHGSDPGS

Row | Compound | hERG current change (%, negative = inhibition) at 10uM [%]
1 | CCCCOc1ccc(/C=N/Nc2cc(N3CCOCC3)nc(C)n2)cc1 | -30.5
2 | CC1CN(CCOc2ccc([N+](=O)[O-])cc2)CC(C)O1.O=C(O)C(=O)O (centres unmarked) | -46.2
3 | CCCCCCCc1c(O)nc(SCCN2CCOCC2)[nH]c1=O.Cl | -17.2
4 | Cc1ccccc1NS(=O)(=O)c1ccc2c(c1)NC(=O)CO2 | 5.97
5 | COC(=O)C1=C(C)NC(=O)NC1c1c(O)ccc2ccccc12 (centres unmarked) | 20
6 | O=C(Nc1ccc(Br)cc1)c1cccnc1N1CCCCC1 | -18.9
7 | O=S(=O)(c1ccc(Cl)cc1)N1CCCC(c2nc(-c3ccc(F)cc3)no2)C1 (centres unmarked) | -3.92
8 | O=C(Cn1cc([N+](=O)[O-])cn1)NCCc1nc2ccccc2[nH]1 | 30.8
9 | Cc1ccc(C(=O)COC(=O)c2ccccc2N2C(=O)C3C4CCC(C4)C3C2=O)cc1C (centres unmarked) | -19.2
10 | O=C1OCC/C1=C\c1ccc(O)cc1 | 12.3
11 | O=C(c1ccco1)N1CCCN(Cc2nc(Cc3ccccc3)no2)CC1 | -25.8
12 | C=C(C)CNC(=S)N/N=C\c1ccc2c(c1)OCO2 | -38.5
13 | CC1=C(C(=O)Nc2cccc(C(=O)NCc3ccc(F)cc3)c2)SCCO1 | -7.54
14 | COc1ccc(-c2ccc(SCC(=O)NCc3ccco3)nn2)cc1OC | -9.59
15 | O=C1/C(=C/C=C/c2ccccc2)Oc2c1ccc(O)c2CN1CCN(CCO)CC1 | 4.78
16 | O=C(O)c1ccc(-n2c(O)c(/C=C3\C=Nc4ccccc43)c(=O)[nH]c2=O)cc1 | 12
17 | COc1ccc(OCCCC(=O)Nc2nncs2)cc1 | 0.955
18 | COc1ccc(Cn2c(=O)[nH]c3cc(C(=O)N4CCN(c5ccccc5F)CC4)ccc3c2=O)cc1 | 11
19 | CC(=O)Nc1ccccc1OC(C)C(=O)N1CC(C)CC(C)C1 (centres unmarked) | 26.9
20 | CCC(CC)C(=O)Nc1cccc(-c2ccc3nncn3n2)c1 | 4.92
21 | CCOc1cccc(OCCCNCCCOC)c1 | -2.04
22 | Cn1nc(C(=O)Nc2ccc3c(c2)OCCO3)c2ccccc2c1=O | -12.8

Row | Compound | hERG current change (%, negative = inhibition) at 10uM [%]
23 | Cc1ccc(Oc2cc(NN3CCCCC3)c([N+](=O)[O-])cc2[N+](=O)[O-])c([N+](=O)[O-])c1 | -10.3
24 | CCN(CC(=O)NCc1ccc(Cl)cc1)C(=O)CCc1ccccc1O | -54.1
25 | CCSC1=N/C(=C\c2ccccc2)C(=O)N1 | -4.35
26 | Cc1csc(NC(=O)c2ccc(=O)[nH]c2)n1 | 11.1
27 | O=C(Nc1cccnc1)C(Cc1ccccc1)n1cccc1 (centres unmarked) | 10.6
28 | O=C1Nc2ccccc2/C1=N\N=C\C1=C(N2CCOCC2)C(=C\c2ccccc2)/CC1 | 3.25
29 | COc1ccccc1/C=C/C=NC1C(=O)N(c2ccccc2)[N+](C)=C1C (centres unmarked) | 1.61
30 | Cc1ccc(CNC(=O)N2CCN(c3ccc(C)cc3)CC2)cc1 | 16.9
31 | CCOc1cccc2sc(N(CCCN(C)C)C(=O)c3ccc(S(=O)(=O)N(C)c4ccccc4)cc3)nc12.Cl | -83.7
32 | CN(Cc1ccn[nH]1)C(=O)C1CCC(=O)N(Cc2cccc(C(F)(F)F)c2)C1 (centres unmarked) | 8.61
33 | Cc1ccc(C)c(C(=O)CN2C(=O)NC3(CCC(C)CC3)C2=O)c1 (centres unmarked) | -18.3
34 | CCc1ccc(NC(=O)N2CCCCCC2)cc1 | 6.55
35 | Cc1ccc(NC(=S)N/N=C/c2c(Cl)cccc2Cl)c(C)c1 | 10.2
36 | C[C@H](CCC(=O)NCCS(=O)(=O)[O-])[C@H]1CC[C@H]2[C@@H]3[C@H](O)C[C@@H]4C[C@H](O)CC[C@]4(C)[C@H]3C[C@H](O)[C@]12C.O.[Na+] | 17.9
37 | Cc1cc(C(=O)OCC(=O)N2CC(C)OC(C)C2)ccc1[N+](=O)[O-] (centres unmarked) | -0.163
38 | COc1cccc(NC(=O)Cc2nnc(SCC(=O)NC3CCCC3)n2C)c1 | 15.7
39 | CC(NCc1ccc(S(N)(=O)=O)cc1)C(=O)NCc1ccccc1 (centres unmarked) | 16.5
40 | CCOc1ccc(NS(=O)(=O)c2ccc(C(=O)N3CCCCC3)cc2)cc1 | -9.46
41 | CNC(=O)C(C)N1c2cccc3cccc(c23)S1(=O)=O (centres unmarked) | 22.3
42 | O=C(c1ccccc1)c1ccc2nc(-c3ccc(NC(=O)c4ccccc4Br)cc3)[nH]c2c1 | 17.8
43 | CCCCNC(=O)Nc1cc(C(=O)OC)ccc1Cl | 3.57
44 | COc1ccccc1C(=O)Nc1nc(C)cc(C)n1 | 20.5
